# Data published in the supplement of paper PMC10670038.
# Where a name gives a salt, the structure may show the parent alone. ± gives the standard deviation of the averaged measurements. Whole data set: some 2,000 compounds, median “relative cell viability vs DMSO, compound + 0.2 uM CuET” near 1, cut for the lowest 2% near 0.25. Some of the results follow.
# Test system: TE10
# Assay: relative cell viability vs DMSO, compound + 0.2 uM CuET (fraction); TE10 is an esophageal squamous carcinoma line; higher = less cytotoxic
# Details: 2 µM; co-treatment: CuET (bis(diethyldithiocarbamate)copper) 0.2 uM; 48 h
# Experimental: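 TE10 ESCC cells (1,000/well, 384-well plates) were treated with Selleck bioactive library compounds at 2 uM combined with 0.2 uM CuET (copper diethyldithiocarbamate) for 48 h. Viability was read by CellTiter-Glo and expressed relative to DMSO wells. Two technical replicates (A, B).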
row,Compound,relative cell viability
1,N#C[C@@H]1C[C@@H]2C[C@@H]2N1C(=O)[C@@H](N)C12CC3CC(CC(O)(C3)C1)C2 [Saxagliptin],1.01 ± 0.09
2,O=C1CCc2cc(OCCCCc3nnnn3C3CCCCC3)ccc2N1 [Cilostazol],1.25 ± 0.091
3,CCCCOc1cc(C(=O)NCCN(CC)CC)c2ccccc2n1 [Dibucaine HCl],1.08 ± 0.17
4,CCNC(=O)C#Cc1ccc2c(C(=Nc3ccc(CN(C)C)cc3)c3ccccc3)c(O)[nH]c2c1,0.753 ± 0.045
5,CCOC(=O)c1ccc(NC(=O)O[C@H]2[C@H](OC(=O)Nc3ccc4c(c3)OCO4)[C@@H](OC(=O)Nc3ccc4c(c3)OCO4)[C@@H](OC)O[C@@H]2CO)cc1,1.1 ± 0.08
6,Nc1ncnc2c1c(-c1cnc3[nH]ccc3c1)nn2C1CCCC1,0.704 ± 0.0074
7,Cc1nc(NC(=O)N2CCC[C@H]2C(N)=O)sc1-c1ccnc(C(C)(C)C(F)(F)F)c1,0.569 ± 0.28
8,CC(C)NCC(O)COc1cccc2ccccc12 (stereo unspecified) [Propranolol HCl],1.17 ± 0.11
9,CN(C)CCSSCCNC(=O)C1CCN(C(=O)CSc2ccc(Cl)cc2)CC1,1.05 ± 0.11
10,COC(=O)[C@@H]1[C@H]2C[C@H]3c4[nH]c5ccccc5c4CCN3C[C@@H]2CC[C@@H]1O [Yohimbine HCl],1.03 ± 0.026
11,CC(C)C[C@H](NC(=O)[C@H]1O[C@@H]1C(=O)O)C(=O)NCCCCN=C(N)N,1.17 ± 0.11
12,Cc1[nH]c(/C=C2\C(=O)Nc3ccc(S(=O)(=O)N(C)c4cccc(Cl)c4)cc32)c(C)c1C(=O)N1CCN(C)CC1,1.14 ± 0.041
13,O=C(/C=C\n1cnc(-c2cc(C(F)(F)F)cc(C(F)(F)F)c2)n1)NNc1cnccn1,0.29 ± 0.015
14,CN(C)Cc1ccc(-c2nc3cccc4c3n2CCNC4=O)cc1,1.23 ± 0.14
15,CN(C)CC[C@H](CSc1ccccc1)Nc1ccc(S(=O)(=O)NC(=O)c2ccc(N3CCN(Cc4ccccc4-c4ccc(Cl)cc4)CC3)cc2)cc1[N+](=O)[O-],0.412 ± 0.11
16,C[C@H]1COC2=C1C(=O)C(=O)c1c2ccc2c1CCCC2(C)C [Cryptotanshinone],0.336 ± 0.066
17,NC(=O)Cc1cccc(C(=O)c2ccccc2)c1N [Nepafenac],1.28 ± 0.25
18,CCCCCCCCC/C(=C\C1=C(C)C(=O)C(OC)=C(OC)C1=O)C(=O)O,1.16 ± 0.17
19,O=[N+]([O-])c1ccc2c(c1)S(=O)(=O)C=C2 [Stattic],0.204 ± 0.018
20,CC[C@H]1OC(=O)[C@H](C)[C@@H](O[C@H]2C[C@@](C)(OC)[C@@H](O)[C@H](C)O2)[C@H](C)[C@@H](O[C@@H]2O[C@H](C)C[C@H](N(C)C)[C@H]2O)[C@](C)(OC)C[C@@H](C)C(=O)[C@H](C)[C@@H](O)[C@]1(C)O [Clarithromycin],1.11 ± 0.028
21,CCCCOc1c(C(=O)c2c(F)cc(C)cc2F)c[nH]c2nncc1-2,0.835 ± 0.055

row,Compound,relative cell viability
1,Nc1ccccc1NC(=O)c1ccc(CNC(=O)OCc2cccnc2)cc1 [Entinostat (MS-275)],0.321 ± 0.033
2,N=C(N)NC(=O)c1nc(Cl)c(N)nc1N [Amiloride HCl],1.03 ± 0.073
3,N=C(N)NC(=O)c1nc(Cl)c(N)nc1N [Amiloride hydrochloride dihydrate],1.12 ± 0.13
4,CC(C)C[C@@H]1NC(=O)[C@@H](C(C)C)NC(=O)[C@@H]2CCCN2C(=O)[C@@H](CC(=O)O)NC(=O)[C@@H](Cc2c[nH]c3ccccc23)NC1=O,1.17 ± 0.11
5,CN(C)C(=O)COC(=O)Cc1ccc(OC(=O)c2ccc(NC(=N)N)cc2)cc1 [Camostat Mesilate],1.13 ± 0.18
6,CCOc1cc([C@@H](CS(C)(=O)=O)N2C(=O)c3cccc(NC(C)=O)c3C2=O)ccc1OC,1.12 ± 0.033
7,O=C(O)c1cc(=O)c2ccccc2o1 [Chromocarb],0.961 ± 0.088
8,CCc1cncnc1N1CCN(Cc2nc3ccc(C(F)(F)F)cc3[nH]2)CC1,1.1 ± 0.21
9,CC1=C(C(=O)OC(C)C)C(c2cccc([N+](=O)[O-])c2)C(C(=O)OC2CN(C(c3ccccc3)c3ccccc3)C2)=C(N)N1 (stereo unspecified) [Azelnidipine],0.976 ± 0.023
10,Cc1cc(C2CCCCC2)n(O)c(=O)c1 [Ciclopirox],0.697 ± 0.013
11,Cc1cc(C2CCCCC2)n(O)c(=O)c1 [Ciclopirox ethanolamine],0.602 ± 0.084
12,CN[C@H]1CN(c2ccc3c(=O)c(C(=O)O)cn(-c4nccs4)c3n2)C[C@@H]1OC [Voreloxin (SNS-595)],1.015 ± 0.0091
13,COc1cc(C(=O)NS(=O)(=O)c2ccccc2C)ccc1Cc1cn(C)c2ccc(NC(=O)OC3CCCC3)cc12 [Zafirlukast],1.08 ± 0.019
14,NS(=O)(=O)c1cc2c(cc1Cl)N=CNS2(=O)=O [Chlorothiazide],0.944 ± 0.012
15,COc1ccc(-c2cnc3c(-c4cccc5ncccc45)cnn3c2)cc1,1.17 ± 0.13
16,COc1cc2ncnc(Oc3cccc(NC(=O)Nc4cc(C(C)(C)C(F)(F)F)on4)c3)c2cc1OC,1.1 ± 0.061
17,O=c1c(O)c(-c2ccc(O)c(O)c2)oc2cc(O)ccc12 [Fisetin],0.98 ± 0.081
18,NCC(=O)Nc1ccc(-n2nc(C(F)(F)F)cc2-c2ccc3c(ccc4ccccc43)c2)cc1,0.649 ± 0.017
19,COc1ccc(-c2nc3cc(C4=NNC(=O)CC4C)ccc3[nH]2)cc1 (stereo unspecified) [Pimobendan],0.888 ± 0.033
20,Cc1ccc(S(=O)(=O)n2c(N)nc3ccccc32)cc1 [ML130 (Nodinitib-1)],1.07 ± 0.088
21,NC(=O)c1ncn([C@@H]2O[C@H](CO)[C@@H](O)[C@H]2O)n1 [Ribavirin],0.937 ± 0.11

row,Compound,relative cell viability
1,CCOC(=O)[C@H](CCc1ccccc1)N[C@@H](C)C(=O)N1[C@H](C(=O)O)C[C@@H]2CCC[C@@H]21 [Ramipril],1.1 ± 0.12
2,Cc1ccnc2c1NC(=O)c1cccnc1N2C1CC1 [Nevirapine],1.201 ± 0.0018
3,CN(C)CCC=C1c2ccccc2CCc2ccccc21 [Amitriptyline HCl],0.901 ± 0.19
4,Cc1[nH]c(=O)c(C#N)cc1-c1ccncc1 [Milrinone],1.13 ± 0.024
5,CC(C)[C@H](CO)Nc1nc(Nc2cccc(Cl)c2)c2ncn(C(C)C)c2n1 [Purvalanol A],0.761 ± 0.03
6,CS(=O)(=O)c1ccc(C2=C(c3ccccc3)C(=O)OC2)cc1 [Rofecoxib],1.28 ± 0.088
7,Cn1c(=O)c2[nH]cnc2n(C)c1=O [Aminophylline],1.15 ± 0.14
8,CC(=O)c1cc([N+](=O)[O-])c(Sc2cccc(Cl)c2Cl)s1,0.4585 ± 0.0011
9,O=C(Nc1ccccc1)c1ccccc1O [Salicylanilide],1.065 ± 0.0055
10,CN1C(C(=O)Nc2ccccn2)=C(O)c2sccc2S1(=O)=O [Tenoxicam],0.867 ± 0.054
11,N#Cc1ccc2[nH]cc(CCCCN3CCN(c4ccc5oc(C(N)=O)cc5c4)CC3)c2c1 [Vilazodone HCl],0.987 ± 0.054
12,Cc1ncc([N+](=O)[O-])n1CC(O)CCl (stereo unspecified) [Ornidazole],1.04 ± 0.006
13,CCc1nc(-c2cccc(C)c2)c(-c2ccnc(NC(=O)c3ccccc3)c2)s1,1.03 ± 0.14
14,Cc1cccc(C)c1NC(=O)C1CCCCN1C (stereo unspecified) [Mepivacaine HCl],0.949 ± 0.12
15,Cc1c(C(N)=O)cc([N+](=O)[O-])cc1[N+](=O)[O-] [Dinitolmide],1.11 ± 0.034
16,N=C(N)N [Guanidine HCl],1.05 ± 0.14
17,N#CC(=Cc1ccc(O)c(O)c1)C(=O)NCc1ccccc1 [AG-490 (Tyrphostin B42)],1.11 ± 0.12
18,CC1(COc2ccc3c(c2)ncn3-c2ccc3cccc(N4CCC(N)CC4)c3n2)COC1,1.41 ± 0.15
19,COc1ccccc1-c1cc(Nc2cccc(CS(N)(=O)=O)c2)ncn1,0.929 ± 0.14
20,CNCC[C@H](Oc1cccc2ccccc12)c1cccs1 [Duloxetine HCl],1.09 ± 0.21
21,C[C@@H](Oc1cc(-n2cnc3ccc(CN4CCN(C)CC4)cc32)sc1C(N)=O)c1ccccc1C(F)(F)F,0.912 ± 0.01

row,Compound,relative cell viability
1,C=CC(=O)N1CC(=Cc2ccc([N+](=O)[O-])cc2)C(=O)C(=Cc2ccc([N+](=O)[O-])cc2)C1,0.126 ± 0.015
2,COc1cc2c(cc1OC)CN(CCc1ccc(NC(=O)c3cc(OC)c(OC)cc3NC(=O)c3cnc4ccccc4c3)cc1)CC2 [Tariquidar],1.16 ± 0.044
3,COc1cc(Cc2cnc(N)nc2N)cc(OC)c1OC [Trimethoprim],1.13 ± 0.075
4,CC(C)(Sc1cc(C(C)(C)C)c(O)c(C(C)(C)C)c1)Sc1cc(C(C)(C)C)c(O)c(C(C)(C)C)c1 [Probucol],0.986 ± 0.15
5,Cn1ccnc1S [Methimazole],1.06 ± 0.013
6,Nc1c(Br)cc(Br)cc1CN[C@H]1CC[C@H](O)CC1 [Ambroxol HCl],1.21 ± 0.17
7,CS(=O)(=O)CCNCc1ccc(-c2ccc3ncnc(Nc4ccc(OCc5cccc(F)c5)c(Cl)c4)c3c2)o1 [Lapatinib],0.824 ± 0.029
8,CS(=O)(=O)CCNCc1ccc(-c2ccc3ncnc(Nc4ccc(OCc5cccc(F)c5)c(Cl)c4)c3c2)o1,1.14 ± 0.11
9,C=CC(=O)Nc1cccc(Nc2nc(Nc3ccc(N4CCN(C(C)=O)CC4)cc3OC)ncc2C(F)(F)F)c1,0.887 ± 0.011
10,CC(C)(C)C(=O)OCOP(=O)(COCCn1cnc2c(N)ncnc21)OCOC(=O)C(C)(C)C [Adefovir Dipivoxil],1.02 ± 0.035
11,COc1ccc(CCNCc2ccc(OCc3ccc(Cl)nc3)c(OC)c2)cc1OC,0.9746 ± 0.0029
12,COc1cc(OC)c(C(=O)CCCN2CCCC2)c(OC)c1 [Buflomedil HCl],1.17 ± 0.035
13,O=c1ccc2ccc(O)c(O)c2o1 [Daphnetin],0.816 ± 0.012
14,N#CC(c1ccc(Cl)cc1)c1c(Cl)cc(-n2ncc(=O)[nH]c2=O)cc1Cl (stereo unspecified) [Diclazuril],0.797 ± 0.025
15,O=C(O)CC[C@H]1CC[C@@](c2cc(F)ccc2F)(S(=O)(=O)c2ccc(Cl)cc2)CC1,0.915 ± 0.047
16,CN1CCC(=C2c3ccccc3CC(=O)c3sccc32)CC1 [Ketotifen Fumarate],0.938 ± 0.029
17,COc1ccccc1N1CCN(CC(O)COc2cccc3ccccc23)CC1 (stereo unspecified) [Naftopidil],0.881 ± 0.078
18,COc1ccccc1N1CCN(CC(O)COc2cccc3ccccc23)CC1 (stereo unspecified) [Naftopidil DiHCl],1.23 ± 0.11
